Measurements reported in the supplement of paper PMC10126150.
Sequences with one replicate were seen in a single cluster, so their values are uncertain.

These sequences were tested on ATP (assay: switch fluorescence ratio, 500 uM ATP over buffer (Cy3 cluster intensity, sum of 5 cycles each) (fold (ratio)); higher = stronger signal-on switching upon ATP binding; sequences stand for … in TCGTCGGCAGCGTCAGATGTGTATAAGAGACAGTTTTTTTTTTTTTTTTTTTTTTTTT…TC). Settings: aptamer strand: ATP DNA aptamer (quencher-CACCTGGGGGAGTATTGCGGAGGAAGG + anchor), 100 nM annealed; ATP concentration: 500 uM; one replicate.
Summary of the method: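 For every switch-domain sequence, the fluorescence ratio is the mean of per-cluster values, each being summed target-cycle Cy3 intensity over summed buffer-cycle Cy3 intensity. Clusters outside 100-1000 RFU were excluded. On a modified Illumina MiSeq flow-cell, the Cy3-labelled switching-strand clusters were annealed to 100 nM quencher-labelled ATP aptamer, imaged in selection buffer and then after 15 min with 500 uM ATP at 22 °C. Five such cycles were run, with NaOH stripping and re-annealing between them.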
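Further: ATP exposure 15 min at 22 °C before imaging.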

Sequence	switch fluorescence ratio
ATATCGGTAT	0.953
GAGATGAGAT	1
ACGAGAAGCT	1.02
AGGGGCGTAT	1.03
GCAATGCAGC	1.11
TATGAGAATC	1.03
AGTTTTGCAC	0.988
TGGCCCCGCG	1.02
GGGGCACACG	0.951
CCACTTACAT	1.27
ACCAACAGCC	1.11
CCATTGTGGA	1.03
TGGGTATACT	1.02
CTGTCCAATT	1.03
CGTGTGCTAT	1.02
AACCGGGATA	1.36
ATATGCGGTT	0.931
AATCAAGGGT	0.97
AGTGTTGGAC	1.02
CTCAGATACT	1.24
GTTGGTGCGT	1.04
GGATCAAGTA	1.02
TAAATTTCCA	0.982
AAAACGCAAC	1.22
GGGCCGATTG	0.998

Sequence	switch fluorescence ratio
TGTCCGAAGC	2.39
CATTGGCCAT	0.977
GCTTTTTACT	0.999
ACGTTTGCCT	0.924
TTCATTTTC	0.992
CGTCCTTGGG	0.98
GCTGGTTTCA	1.02
GGACGTTGGC	0.996
AACTATTAGC	0.976
AAATTGCAAT	1
AGCGATTAAC	1.9
TGTGTATATC	1.01
AGCCGAGTAT	0.949
TGTGTAACGT	0.984
CCAAGAAGGA	1.01
CTGAGGTAA	1.68
TTCTGCGTCT	0.984
CGTCGAGCGT	1.03
GCCCGGTAAG	1.02
CAATATACC	1.06
ATGCATAAGA	0.993
TCGGTGCGGA	1.01
CGGACCCGGG	1.15
AGGGAGTTGA	1.02
TTAGCTAGCA	1.02

Sequence	switch fluorescence ratio
TAGAGGCCAC	0.973
TTGTAACCGG	1.03
AAGTCACCGC	1.14
TTAGAGTGG	0.986
GCTGGGAACT	0.989
TGTCGTGAGA	1.04
TTATTTACGT	1.04
ATTATCGGG	0.994
ATACTTCAAC	1.12
CAGAAGAGTG	0.915
TGGTAAGTGT	0.997
CCGCATATTT	2.19
CGCCCCAAGG	2.99
AGTGTTCCCC	1.02
GCGCCAGTTC	1.07
TACATCCTTT	1.09
CCTTGGAGAC	1.55
GGGCCCCTCT	1
CATACCGTTA	1.06
CAGGGTAAGA	0.989
TTTCAACGAC	1.05
GTTATCTCCT	1.06
ATTTCTGCGT	0.994
GATTTGGGGG	1
AAACGCAGGT	1.07

Sequence	switch fluorescence ratio
GCGGGTTGCG	0.998
GGATGTAGGC	1.05
GACGTCTGTA	1.02
TTGGTGAGTA	0.98
TTGAAAGTGT	0.95
AGTTCCAAAC	0.99
TTTTTCGTCG	0.934
GGCGATCGTA	1.02
TGGTAGCCGG	0.986
GCGTAAAATG	1.2
GGTGGAGTTC	0.985
AAGAAAACTA	1.02
TATTTTACAC	0.959
ATGCTGATAG	0.991
ACTACGGTCT	1.02
AAGTACTTCG	1.2
CAACTGTAGG	1.01
AAGTGTGCTA	0.989
TCGGGAATCC	1.02
CATTCTCTAA	0.968
CTAGGAGAGC	0.911
TTTTTCTGTA	0.965
GACACATCGC	1.06
GAATTACTTG	0.976
GGTCCTCGGT	0.988

Sequence	switch fluorescence ratio
AGCGAACCAG	1.23
CCCCCTGAGC	1.15
TGGGCTCCGA	0.942
ACGAAAATTG	1.29
GAGGGTTACT	1.04
AGAGATGGTG	1.04
AGTCTAGGGT	0.975
ACAGTCCGGA	0.998
CGGTATCAGT	0.971
TGCGCTTGGT	0.971
CTAGAATGCT	1
GAGGATCTAA	0.979
TCGCCCATGC	1.74
AACGCTGAGC	1.08
ATTTGAGTCG	0.962
TGTCGCAATT	2.38
AGGCGAGTGG	0.918
TGGGAAGGAC	1.03
AGCATTATGT	1.01
GGCTACATAT	1.02
AATCTTAGGA	0.982
CACGGGGGCA	1.01
CGTGGCCTGC	1.01
TGGTGTGGCC	0.96
ACCGCTGTGC	2.99

Sequence	switch fluorescence ratio
TCTTGGGTTA	0.994
AGAATCCGAT	1.01
GACAATTCCT	1.08
GAGGGTGGTT	0.96
GGTGATTGT	1.03
GTCTCCAGTT	0.992
TCGGGTGCTT	1.02
TTGTCCGGAC	1.01
TGTCTTAGGG	1.11
TTTCGTTACA	1.05
AAGGGTGACA	1.04
CAATAAATGC	2.03
GCAGCTAGTG	1.04
GGTCTTAATC	0.98
TTAGCGCATA	1.15
GTGCGTTGCT	0.983
TATTGTTAGT	0.982
CCTTCTTAGA	1.09
GAACAGCGGG	0.965
CATGGTGTGA	1.02
TTCGCTTAAT	1.1
AGGGTTACCT	1.05
TACCCACTTA	1.25
TCCAACGAAG	1.03
GGGTGTGCAC	1.03

Sequence	switch fluorescence ratio
ACGGCGCATT	1.23
GCAGAGGGAC	1.02
ATTAGTGACT	1.08
CAATAATCAA	1
CGAGGAGCGG	1.01
ACCTTAGGTT	1.03
TCTTGTGGGT	0.972
AAGTGCACGA	0.956
GATAATGTAG	1.03
TAAGAGGAAA	0.977
CGACTAGAAC	1.07
ATTAGCGCG	0.983
GGCGCCATCG	0.957
TAATGACTCG	1.05
TAGCACGACT	0.999
AAGTATCAGA	1
GGGATTCTGA	0.979
TCGGACGTAA	4.65
AAAGTTTGAT	1
AATCGTTACC	1.08
ATGGTCATTT	1.05
CGGTTAGGCC	0.947
GGCCGTATGC	0.979
TTTGGGCAGA	1.03
CGGTGAGTA	1.02

Sequence	switch fluorescence ratio
CGGCGAGGGA	1.03
ATTTGAGC	1.04
CCGGAGTGC	1.04
ATAACGACAT	1.08
ATATTGTGCC	0.969
GGCCCCATCG	0.972
AGGCTGCCGG	1
ACCGGCCAG	1.05
AACAAAGATA	1.04
TCGGCCGGAG	1.01
GCCTTGCATT	1.07
CGATTCATTA	0.979
AACTATTTGG	1.01
CAAGTGCGCA	0.984
CGCGTAGTTT	1.02
AGGATACTGT	1.01
GGAGAACATT	0.993
ACAATAAATG	1.04
CGAGATTGGC	0.957
GGCCAGGGTT	1.04
GCTGGACTCA	1.04
TTGCGGTTTT	0.948
TAGAAATTTT	1.03
TTTTTACACC	1.11
ATGCGGTCC	1.02
